The values below come from the BET-seq Pho4 binding data (Le et al. 2018).

Some of the results follow. The energies were worked out here from pooled read counts, against the library average; single values are noisy.

The assay concerns the target T1, Pho4 (S. cerevisiae) (UniProt P07270).
T1 sequence: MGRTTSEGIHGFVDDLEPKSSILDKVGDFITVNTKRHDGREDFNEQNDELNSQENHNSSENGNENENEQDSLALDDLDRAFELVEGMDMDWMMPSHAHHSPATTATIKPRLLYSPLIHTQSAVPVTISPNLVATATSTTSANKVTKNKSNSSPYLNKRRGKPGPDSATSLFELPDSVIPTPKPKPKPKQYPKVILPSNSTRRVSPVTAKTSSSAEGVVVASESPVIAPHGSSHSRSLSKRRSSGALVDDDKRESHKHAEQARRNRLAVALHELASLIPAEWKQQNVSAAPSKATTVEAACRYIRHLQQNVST
The assay is described as follows: relative binding free energy (BET-seq); higher = weaker binding. Conditions: reference: library average.
For TATGGCACGTGCTGAT, the “relative binding free energy” value is -0.13 kcal/mol. As to ATATTCACGTGGCTAT, the “relative binding free energy” value amounted to 0.18 kcal/mol. Under TATTGCACGTGGGAAT stands -0.1 kcal/mol; under AGTTGCACGTGTTTCA, -0.02 kcal/mol.

As to TGCTCCACGTGTTGTT, the “relative binding free energy” value is -0.07 kcal/mol.

Take ATTATCACGTGTGTGT: the “relative binding free energy” value amounted to 0.2 kcal/mol. For the sequence GCCGGCACGTGGCGGG, the “relative binding free energy” value was -0.15 kcal/mol. As to TGCTGCACGTGTTGGT, the “relative binding free energy” value was -0.01 kcal/mol. Under TTATTCACGTGCGAGA stands 0.34 kcal/mol. Next, GTATTCACGTGTTTAC: 0.24 kcal/mol; AATTTCACGTGGCCGT: 0.35 kcal/mol; ATTGTCACGTGAGGGC: 0.18 kcal/mol. Next, TAGTTCACGTGAAGGA: 0.52 kcal/mol; GGAATCACGTGCGTAG: 0.18 kcal/mol. As to TTTGACACGTGGGCGT, the “relative binding free energy” value was -0.09 kcal/mol.

For ATGGGCACGTGTGTGA, the “relative binding free energy” value is -0.07 kcal/mol. Next, CTGTGCACGTGGTACG: -0.14 kcal/mol; GAGATCACGTGTTTTT: 0.26 kcal/mol.

TAAGGCACGTGCGGGC: the “relative binding free energy” value is -0.05 kcal/mol. Under GGCAGCACGTGTTTTG stands 0.05 kcal/mol; under CGTTTCACGTGTTTGG, 0.14 kcal/mol; under TCGGTCACGTGTAGAA, 0.2 kcal/mol. Turning to TGTCGCACGTGTGAGT, the “relative binding free energy” value is -0.07 kcal/mol. Regarding TATTACACGTGGTGTT, the “relative binding free energy” value is 0.02 kcal/mol. On to GCGCTCACGTGGGTGT, for which the “relative binding free energy” value is 0.1 kcal/mol. Under AAGATCACGTGGGGCT stands 0.02 kcal/mol; under CTGATCACGTGGATGG, 0.14 kcal/mol; under AGGTTCACGTGGGGTA, 0.15 kcal/mol. For TGGCTCACGTGCGGTG, the “relative binding free energy” value is 0.24 kcal/mol. In the case of AGGGTCACGTGCGAGT, the “relative binding free energy” value stood at 0.03 kcal/mol. Next, TTTTCCACGTGGTTAG: 0.07 kcal/mol; TACTACACGTGGTGGT: 0.08 kcal/mol; TAGGCCACGTGCGTTG: -0.16 kcal/mol. On to TTAAGCACGTGATGCT, for which the “relative binding free energy” value was 0.14 kcal/mol.

In the case of AAGGACACGTGGGTTA, the “relative binding free energy” value was -0.02 kcal/mol.

Consider CTATGCACGTGAGGGT, for which the “relative binding free energy” value came to 0.06 kcal/mol. As for CAGTGCACGTGGTCTT, the “relative binding free energy” value worked out at 0.11 kcal/mol. As for GGGGTCACGTGGTGGC, the “relative binding free energy” value is 0.12 kcal/mol. Consider AGGCCCACGTGAGGTG, for which the “relative binding free energy” value was determined as 0.15 kcal/mol. Under GCGGGCACGTGGAAGT stands 0.01 kcal/mol; under TTTGGCACGTGTTAGG, -0.09 kcal/mol.

With AGATTCACGTGGTAGT, the “relative binding free energy” value came out at 0.28 kcal/mol.

With CTGGACACGTGTGGAT, the “relative binding free energy” value was 0.03 kcal/mol. For the sequence AGCTGCACGTGGTTAG, the “relative binding free energy” value is -0.17 kcal/mol. Next, AAAATCACGTGGTTAT: 0.14 kcal/mol; TGTGGCACGTGTCATG: 0.04 kcal/mol. GTGTACACGTGTTAGC: the “relative binding free energy” value worked out at 0.03 kcal/mol. Under TGAATCACGTGTATTG stands 0.1 kcal/mol; under GGTGACACGTGTTGCG, 0.18 kcal/mol; under GAATGCACGTGCTGGT, -0.02 kcal/mol. Under TATTGCACGTGGGTAG stands -0.12 kcal/mol. As to GGGGACACGTGGGAGG, the “relative binding free energy” value is -0.06 kcal/mol.

Take CTTAACACGTGGTGGG: the “relative binding free energy” value is -0.14 kcal/mol. Under GTTTCCACGTGTTCGT stands 0.19 kcal/mol; under TAACGCACGTGGGTGC, -0.11 kcal/mol. Regarding AGCGACACGTGGTATG, the “relative binding free energy” value was determined as 0.03 kcal/mol. With GGGAACACGTGGGTGA, the “relative binding free energy” value was -0.05 kcal/mol. On to CAGGGCACGTGTCGGA, for which the “relative binding free energy” value was determined as 0.03 kcal/mol. Next, ATTTTCACGTGCTCGT: 0.17 kcal/mol; TTGGTCACGTGCAAAT: 0.22 kcal/mol; GAATGCACGTGTGAGG: 0.07 kcal/mol.

As for TTAATCACGTGAAAGT, the “relative binding free energy” value was 0.3 kcal/mol. Under GGCTGCACGTGGTGCA stands -0.07 kcal/mol; under ACGGGCACGTGGTAGG, -0.13 kcal/mol. As to GGCTACACGTGGTTGG, the “relative binding free energy” value was 0.06 kcal/mol.

Take GTTGACACGTGCGTTA: the “relative binding free energy” value is -0.06 kcal/mol. Under CGGTTCACGTGCTTTT stands 0.37 kcal/mol; under CCTTTCACGTGGATGT, 0.38 kcal/mol; under TTCATCACGTGGAGGG, 0.1 kcal/mol. Take TGAGACACGTGAGATA: the “relative binding free energy” value came to 0.28 kcal/mol. Under AATGTCACGTGTATGG stands 0.03 kcal/mol. Under CTAAGCACGTGGGCTT stands -0.1 kcal/mol. Next, TGTGTCACGTGGTTTT: 0.11 kcal/mol.
